Laboratory results as given in the supplement of paper PMC7125110.
± gives the standard error. Variants at the floor of the assay are shown more often than the library holds them.

B1: glmS ribozyme (parent)
chain: AUAAAAGCGCCAGAACUACAGAAAUGUAGUUGACGAGGAGGAGGUUUAUCGAAUUUUCGGCGGAUGCCUCCAAA

What was measured:
Conditions in all cases: with glucosamine-6-phosphate
glucosamine-6-phosphate [1] = variants of: B1; test: self-cleavage kobs at 40 uM GlcN6P; higher = faster cleavage; RNA array
In short: (§1)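 Barcoded ribozyme variants on sequenced MiSeq chips were transcribed in situ by E. coli RNA polymerase and followed at 37 °C through a hybridised Cy3 probe. Glucosamine-6-phosphate at 40 μM to 10 mM in HEPES/KCl/Mg(OAc)2 buffer was flowed in, and tiles were imaged over ~14 h. Signals were normalised to baseline and to non-cleaving reference variants, and per-tile medians were fit to one- or two-exponential decays to give kobs. Weighted Michaelis–Menten fits across concentrations gave kcat and KM.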

glucosamine-6-phosphate [2] = variants of: B1; test: self-cleavage kobs at 640 uM GlcN6P; higher = faster cleavage; RNA array
In short: as §1

glucosamine-6-phosphate [3] = variants of: B1; test: self-cleavage kobs at 160 uM GlcN6P; higher = faster cleavage; RNA array
In short: as §1

glucosamine-6-phosphate [4] = variants of: B1; test: self-cleavage kobs at 2500 uM GlcN6P; higher = faster cleavage; RNA array
In short: as §1

glucosamine-6-phosphate [5] = variants of: B1; test: self-cleavage kobs at 10000 uM GlcN6P; higher = faster cleavage; RNA array
In short: as §1

| Variant | self-cleavage kobs at 40 uM GlcN6P (glucosamine-6-phosphate [1]) [s⁻¹] | self-cleavage kobs at 640 uM GlcN6P (glucosamine-6-phosphate [2]) [s⁻¹] | self-cleavage kobs at 160 uM GlcN6P (glucosamine-6-phosphate [3]) [s⁻¹] | self-cleavage kobs at 2500 uM GlcN6P (glucosamine-6-phosphate [4]) [s⁻¹] | self-cleavage kobs at 10000 uM GlcN6P (glucosamine-6-phosphate [5]) [s⁻¹] |
| --- | --- | --- | --- | --- | --- |
| A15C U47A | 0.000116 ± 1.4e-05 | 0.000773 ± 0.00011 | 0.000266 ± 5.3e-05 | 0.00226 ± 0.00034 | 0.00367 ± 0.00044 |
| A14C G38U | < 1e-05 | < 1e-05 |  |  |  |
| C16A A33C | < 1e-05 | < 1e-05 | < 1e-05 | < 1e-05 |  |
| A14G G32A U49A | < 1e-05 |  |  |  |  |
| A15U C34A G35C A48C G51C | < 1e-05 |  |  |  |  |
| G13U U54G | 3.24e-05 ± 1.1e-05 | 0.000263 ± 6e-05 | 9.27e-05 ± 1.6e-05 |  |  |
| A15U G37U C67G | < 1e-05 |  | < 1e-05 |  | < 1e-05 |
| A14G A36U A48U | < 1e-05 |  |  |  |  |
| A14G A53U U55G | 0.000607 ± 0.00013 |  |  |  |  |
| A15U U57A | < 1e-05 |  |  |  |  |
| G13U A15U A48U | < 1e-05 | < 1e-05 |  | < 1e-05 | < 1e-05 |
| A15U C34A U49G U57G | < 1e-05 |  |  |  |  |
| A15G C71G | 0.000107 ± 1.2e-05 | 0.00066 ± 8.8e-05 | 0.000256 ± 4.1e-05 | 0.00214 ± 0.00045 |  |
| A15C G38A U57G | < 1e-05 |  |  |  |  |
| G13C G51A | < 1e-05 |  |  | < 1e-05 | < 1e-05 |
| G13C G51U | < 1e-05 | < 1e-05 | < 1e-05 | < 1e-05 | < 1e-05 |
| A14C C61U | < 1e-05 | < 1e-05 |  | < 1e-05 |  |
| G13U C50U | < 1e-05 |  |  |  | < 1e-05 |
| G13U C50A | < 1e-05 |  |  |  |  |
| A14C A33G | < 1e-05 |  |  | < 1e-05 | < 1e-05 |
| A15C G63A | < 1e-05 | < 1e-05 |  |  | < 1e-05 |
| G13C G43C | < 1e-05 | < 1e-05 | < 1e-05 | < 1e-05 | < 1e-05 |
| A14C U45G U47A G51A U56C G59C C67A | < 1e-05 |  |  |  | < 1e-05 |
| A14U C34U A52G U55C G59A C71U | < 1e-05 | < 1e-05 |  |  |  |
| A15U U47C C61U | < 1e-05 |  |  |  | < 1e-05 |
| A15G C16G G59A C61G | < 1e-05 |  |  |  | < 1e-05 |
| G13U A53U G59U | < 1e-05 |  |  |  |  |

| Variant | self-cleavage kobs at 40 uM GlcN6P (glucosamine-6-phosphate [1]) [s⁻¹] | self-cleavage kobs at 640 uM GlcN6P (glucosamine-6-phosphate [2]) [s⁻¹] | self-cleavage kobs at 160 uM GlcN6P (glucosamine-6-phosphate [3]) [s⁻¹] | self-cleavage kobs at 2500 uM GlcN6P (glucosamine-6-phosphate [4]) [s⁻¹] | self-cleavage kobs at 10000 uM GlcN6P (glucosamine-6-phosphate [5]) [s⁻¹] |
| --- | --- | --- | --- | --- | --- |
| G13U G38A A39U | < 1e-05 |  |  |  |  |
| A15G G29C | 3.64e-05 ± 1.1e-05 | 0.000327 ± 7.2e-05 | 0.000187 ± 5.3e-05 | 0.00156 ± 0.00032 | 0.002 ± 0.00023 |
| A15G G29U | 6.06e-05 ± 1.7e-05 | 0.000265 ± 0.0001 | 0.000104 ± 4.4e-05 |  |  |
| A15C U31C A42C C50U | < 1e-05 |  |  |  |  |
| A15G A52C U55C | < 1e-05 |  |  |  |  |
| A15G A52C U57G A64C C68A | < 1e-05 |  |  |  |  |
| A14U G59C | < 1e-05 | < 1e-05 | < 1e-05 |  | < 1e-05 |
| A14U U31C G51A | < 1e-05 | < 1e-05 |  |  |  |
| A14C U47G | 2.31e-05 ± 1.1e-05 | 0.000208 ± 3e-05 | 6.35e-05 ± 1.2e-05 | 0.000422 ± 8.2e-05 |  |
| A15U C34G G66U C71U | < 1e-05 |  |  |  |  |
| A15C C34U C67U C70U | < 1e-05 |  |  |  |  |
| A15C G62U | < 1e-05 |  |  | < 1e-05 | < 1e-05 |
| A15C G62C | < 1e-05 | < 1e-05 | < 1e-05 | < 1e-05 | < 1e-05 |
| G13U G35C C71G | < 1e-05 |  |  |  | < 1e-05 |
| A15G U46C C61A | < 1e-05 |  |  | < 1e-05 | < 1e-05 |
| A15G U69G | 3.29e-05 ± 1.2e-05 | 6.2e-05 ± 1.2e-05 | 5.34e-05 ± 2.7e-05 | 0.00012 ± 1.7e-05 | 7.05e-05 ± 9.2e-06 |
| C16A C34U | < 1e-05 | < 1e-05 | < 1e-05 | < 1e-05 |  |
| A14C C16A G51C | < 1e-05 |  |  | < 1e-05 |  |
| A15C C61U U69G | < 1e-05 |  |  |  | < 1e-05 |
| G13U A42C A53C C68A | < 1e-05 |  |  |  |  |
| A14U G41C C70G | 0.000998 ± 0.00029 |  |  |  |  |
| A15G G38U G40U | < 1e-05 |  |  |  |  |
| G13C G60U | < 1e-05 |  |  | < 1e-05 |  |
| A14U G37U G59U C61A | < 1e-05 |  |  |  |  |
| A15C G35A G41A G44A | < 1e-05 |  |  | < 1e-05 |  |
| A15C G37U | < 1e-05 | < 1e-05 |  |  | < 1e-05 |
